Measured values published in PubChem BioAssay AID1814 (Broad Institute, 2009).
The campaign covered roughly 300,000 compounds. About 22,000 (7.3%) were called active. Inconclusive means that the source gave no clear call. Such entries were picked first, then a sample of the others. Cut-off read from the data, not from the text of the source: active = activity score below about -60%; inconclusive = mostly about -28% to -61%; inactive = positive scores.

Test: Activators via SNCA 5'UTR binding, MLPCN (AID 1814)
Conditions: alpha-synuclein 5'UTR reporter, activators screen; active compounds read low; tested at 7.5 µM

Activity score, active:
Cc1cc(N2CCOCC2)nc2ccc(NC(=O)CCC(=O)N3CCN(c4cccc(C(F)(F)F)c4)CC3)cc12 -71.7%
COc1ccc2oc(-c3ccc(C)c(NC(=O)CSc4ccc(Cl)cc4)c3)nc2c1 -133%
Oc1[nH]c2ccccc2c1C=Nc1ccc2c(c1)OCO2 -285%
COc1ccc(C(=O)N=c2sc3c(C)ccc(OC)c3n2C)cc1OC -295%
CC(C)COC(=O)c1ccc(NC(=O)C2C3CCC(C3)C2C(=O)O)cc1 (centres undefined) -131%
Cc1nn(C)cc1/C=C/C(=O)c1ccc(O)cc1 -229%
O=c1c2cnn(-c3ccccc3)c2nc(-c2cccs2)n1-c1cccc(Cl)c1 -63.1%
CN(C)/C=N/c1nc(-c2ccc3ccccc3c2)cs1 -145%
O=C(NCCc1cccs1)C1CC(c2ccc([N+](=O)[O-])cc2)=NO1 (centres undefined) -157%
O=C(COc1ccc(F)cc1Br)NCc1ccccn1 -88.4%
CCN(CC)S(=O)(=O)c1cc(C(=O)Nc2cc(C)[nH]n2)ccc1Cl -161%
Cn1c(SCc2ccccc2F)nnc1-c1ccccn1 -123%
N#C/C(=C\c1ccc(Sc2ccccc2)o1)c1nc2ccccc2[nH]1 -219%
O=C(c1ccccc1)c1cnc(Nc2ccccc2Cl)s1 -95.8%
Fc1ccc(F)c(C2=NNC(=Nc3ccccc3F)SC2)c1 -110%
c1ccc(-c2nccc(-c3ccc4c(c3)OCO4)n2)cc1 -105%

Activity score, inconclusive:
COc1cccc(-c2cc(C(F)(F)F)n3ncc(C(=O)NCC4CCCO4)c3n2)c1 (centres undefined) -19.3%
COC(=O)c1[nH]c2ccccc2c1NC(=O)CN1CCCc2ccccc21 -49.7%
O=C(NC(=S)Nc1ccccc1C(F)(F)F)c1ccccc1F -44.1%
COC(=O)C(O)(CC(=O)Nc1ccccc1OC)C(F)(F)F (centres undefined) -24.3%
O=C(c1ccccc1)C1Oc2ccccc2C2CC(c3cccs3)=NN12 (centres undefined) -52%
C#CCOCCOCCOCCNc1nc(N2CCN(C(=O)[C@H](CCC(=O)O)n3cc(C(N)CC(C)C)nn3)CC2)nc(N2CCN(C(=O)[C@H](Cc3cc4ccccc4[nH]3)n3cc(C(N)CC(C)C)nn3)CC2)n1 (some centres undefined) -27.7%
O=C(/C=C/c1ccco1)c1ccc(O)cc1 -70.1%
Cc1ccc(-c2nnc(SCC(=O)NC3CC3)o2)cc1 -41.6%
Nc1n[nH]c(-c2ccccc2)n1 -35.7%
Cc1cc(=O)oc2c1c(C)nn2-c1ccc(Cl)cc1 -36.3%
c1ccc(OCc2ccc(CCCN3CCOCC3)cc2)cc1 -41.9%
CC(/C=C/C=C/c1ccccc1)=N/NC(=O)c1ccc2c(c1)OCCO2 -38%
CSc1nc2ccc(NC(=O)C3=NNC(=O)CC3)cc2s1 -53.8%
CCc1nnc(NC(=O)C2COc3ccccc3O2)s1 (centres undefined) -52.7%
Cc1cc(C)n(-c2ccc(C(=O)N3CCc4ccccc43)cc2)n1 -60.8%
COc1ccc(C2CC(=O)C(C3NCCc4ccccc43)=C(O)C2n2cncn2)cc1 (centres undefined) -37.5%
Fc1ccc(C2CC(c3ccco3)=Nc3ccccc3S2)cc1 (centres undefined) -54.6%
O=C(Cc1c(F)cccc1Cl)Nc1nc2ccccc2s1 -55.2%
O=C(NCCc1ccccc1)C1CCN(c2ncccn2)CC1 -53.5%
CCCS(=O)(=O)N1CCCC(c2nc(-c3cccc(OC)c3)no2)C1 (centres undefined) -57.7%
CC(C)(C)c1ccc(/C=N/N2CCN(c3ccccn3)CC2)cc1 -58%
N#C[C@H]1[C@H](c2ccccc2)[C@](C#N)(C(=O)c2ccccc2)[C@@H]2C=Cc3ccccc3N21 -37.2%
O=C(CSc1nc2ccccc2o1)Nc1nc2ccccc2s1 -56.1%
Cn1c(NC(=O)c2cccc(Cn3cc(Cl)cn3)c2)nc2ccccc21 -59.1%
COC(=O)c1[nH]c2ccc(Cl)cc2c1NC(=O)Oc1ccccc1 -56.9%
CCCOC(=O)c1ccc(NC(=O)c2ccccc2OC)cc1 -75%
O=C(C1=C(O)C(=O)N(c2nccs2)C1c1ccccc1)c1cc2ccccc2o1 (centres undefined) -59.8%
COC(=O)c1sc(-c2ccc(Cl)cc2)cc1NC(=O)c1ccccc1C(=O)O -55.1%
CCOc1ccc(N=Cc2c(O)c3ccccc3oc2=O)cc1 -58.5%
O=[N+]([O-])c1ccc(Cl)c(S(=O)(=O)Nc2cccc(-c3ccc(N4CCCC4)nn3)c2)c1 -56%
Cn1nc(C(=O)Nc2ccc3c(c2)OCCO3)cc1C(=O)O -47.6%
CC(C)(CNC(=O)c1ccc(Cl)c(S(=O)(=O)N2CCc3ccccc3C2)c1)N1CCOCC1 -40.2%
Cc1nc(NC(=O)COc2ccc(Cl)cc2)sc1C(=O)N(C)C -24.4%
CCC(=O)NC(=S)Nc1ccc(-c2nc3ccccc3s2)cc1 -58.6%
CC1Cc2nc(SCC(=O)NCc3ccco3)n(Cc3ccccc3)c(=O)c2S1 (centres undefined) -58.7%
CCC(=O)N(Cc1ccco1)c1nc(-c2ccc(OC)cc2)cs1 -60.8%
CC1=NN(C(=O)c2ccco2)C(O)(c2ccccc2)C1 (centres undefined) -57.2%
O=C(NCCC1=CCCCC1)c1ccc2c(=O)n3c(nc2c1)CCCCC3 -42.6%
C=CCc1ccc(OCCCCNC2CCCC2)c(OC)c1 -36.6%
COc1ccc(-c2nc(-c3ccncc3)no2)cc1 -52.7%
CCOC(=O)c1[nH]c2ccc(OC)cc2c1NC(=S)N1CCN(c2cccc(Cl)c2)CC1 -51%
Cc1ccc(/C=C/C(=O)N2CCc3ccccc3C2)cc1 -52.2%
CC(=O)Nc1ccc(SCC(=O)c2ccc(Br)s2)cc1 -53.8%
COc1ccc(CNc2ccc(N3CCOCC3)cc2)cc1 -55%
O=C(Nc1cccc(Br)c1)c1ccc(Cl)c(S(=O)(=O)N2CCOCC2)c1 -42.9%
O=C(NNC(=S)Nc1ccc(Cl)c(Cl)c1)c1cccc([N+](=O)[O-])c1 -60.4%
Cc1ccc(-c2csc(NC(=O)CSc3nc4ccccc4c(=O)n3CCCN(C)C)n2)cc1 -58.1%
O=C(Nc1ccc(F)cc1F)c1ccccc1-c1ccccc1 -56.1%
Nc1c(Cl)cnc(C(Cl)(Cl)Cl)c1Cl -34.1%
CCCC(=O)Nc1ccc(NC(=O)c2ccco2)c(OC)c1 -60.4%
COc1ccc(/C=C(\C#N)C(=O)C(C)(C)n2cncn2)cc1 -27.6%

Activity score, inactive:
CCCCCCCn1c(NC(=O)CC)nc2ccccc21 68.1%
c1ccc(-c2nnc(-c3ccccn3)s2)nc1 78.4%
COc1ccc(N2C(N)=NC(N)=NC2(C)C)cc1 81.4%
CCC(=O)N1N=C(c2c(-c3ccccc3)c3cc(Cl)ccc3[nH]c2=O)CC1c1ccco1 (centres undefined) 42.5%
O=C(/C=C/c1ccco1)Oc1cc(Br)cc(/C=N/NC(=O)c2ccccc2O)c1 95.9%
CCCCC(=O)NC(c1ccc(N(C)C)cc1)c1ccc2cccnc2c1O (centres undefined) 62.4%
O=C1c2ccc3c4c(ccc(c24)C(=O)N1CCCCO)C(=O)N(CCCCO)C3=O 111%
COc1ccc(C2=Nn3c(nnc3-c3ccc(OC)cc3)SC2)cc1 99.7%
Cc1cccc2cc3c(N)c(C(=O)N4CCCc5ccccc54)sc3nc12 85.2%
CCOc1ccc(S(=O)(=O)Nc2cc(OC)ccc2OC)cc1 80.7%
Nc1nc(N)c2cc(Sc3ccc4ccccc4c3)ccc2n1 96.1%
CCOc1ccc(C(=O)O/N=C(\N)c2ccccn2)cc1 61.6%
CCN(CC(=O)NCc1ccc(F)cc1)C(=O)/C=C/c1ccc(OC)c(S(=O)(=O)NC(C)C)c1 63.2%
NCCCn1c(C(=O)c2ccc(Cl)cc2)c2ccc([N+](=O)[O-])cc2[n+]1[O-] 60.1%
Cc1nc2ccccc2c(=O)n1/N=C/c1c(O)ccc2oc3c(c12)CCCC3 85.7%
CC(=O)O[C@H]1C(=O)[C@@]2(C)[C@H]([C@H](OC(=O)c3ccccc3)[C@]3(O)C[C@H](OC(=O)[C@H](O)C(NC(=O)c4ccccc4)c4ccccc4)C(C)=C1C3(C)C)[C@]1(OC(C)=O)CO[C@@H]1C[C@@H]2O (some centres undefined) 72.3%
CC(C)CCn1c(SCCc2ccccc2)nc2c1c(=O)[nH]c(=O)n2C 52.6%
CC(=O)Nc1ccc(OCc2cccc3ccccc23)cc1 92.1%
CCCCCCCCCn1c2c(c(=N)c3c1CCC3)CCC2 85.7%
CCN(CC)c1ccc(/C=N/NC(=O)c2ccc3nc[nH]c3c2)c(O)c1 92.6%
O=C(Cc1ccc([N+](=O)[O-])cc1)N/N=C/c1ccc([N+](=O)[O-])o1 88.7%
CN(C)c1ccc(N=Nc2ccc(C(=O)O)cc2)cc1 64%
